The supplement of paper PMC7826260
Some of the results follow. One pool of 16,384 single-stranded DNAs met each Rep nickase domain in vitro (3 µM enzyme, 1 h, 37 °C); shown is the middle of each 90-letter strand. A value is the log2 ratio of uncut reads to the pool without enzyme; more negative means more cut, near 0 not cut, and no call is made. The scaling is to total reads; uncut strands gain when others are lost, and binding without cutting may add a little.

Experiments:
Test in all cases: uncleaved DNA left, log2 of reads against the no-enzyme library (log2 ratio); higher = less cleavage (more negative = more Rep cleavage of the k-mer); sequences stand for … in CTCGTCCG…ACCGGAGA
[1] = tested on: T1, Rep nickase domain of Muscovy duck circovirus
T1 sequence (residues 1-111, tag not shown): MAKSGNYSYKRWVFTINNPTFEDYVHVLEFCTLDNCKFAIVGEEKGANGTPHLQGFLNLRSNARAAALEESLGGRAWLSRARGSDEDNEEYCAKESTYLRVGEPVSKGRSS
Procedure: (§1)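 A pool of 90-nt single-stranded DNAs with seven random bases just before the constant AC of the nick site (name = the seven bases) was cut by 3 µM recombinant His6-SUMO-tagged Rep nickase domain (300 nM DNA, 50 mM HEPES pH 8.0, 50 mM NaCl, 1 mM MnCl2, 1 h, 37 °C, three replicates). Uncut DNA was amplified and sequenced.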

[2] = tested on: T2, Rep nickase domain of banana bunchy top virus
T2 sequence (residues 1-94, tag not shown): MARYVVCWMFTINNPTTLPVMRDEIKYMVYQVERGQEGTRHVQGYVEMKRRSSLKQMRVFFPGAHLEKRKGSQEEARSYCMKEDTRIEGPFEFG
Procedure: as §1

[3] = tested on: T3, Rep nickase domain of cabbage leaf curl virus
T3 sequence (residues 1-116, tag not shown): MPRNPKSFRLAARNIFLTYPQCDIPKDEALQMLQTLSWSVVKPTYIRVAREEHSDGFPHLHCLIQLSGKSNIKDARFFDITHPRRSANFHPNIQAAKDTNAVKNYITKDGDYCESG
Procedure: as §1

[4] = tested on: T4, Rep nickase domain of chickpea chlorotic dwarf virus
T4 sequence (residues 1-124, tag not shown): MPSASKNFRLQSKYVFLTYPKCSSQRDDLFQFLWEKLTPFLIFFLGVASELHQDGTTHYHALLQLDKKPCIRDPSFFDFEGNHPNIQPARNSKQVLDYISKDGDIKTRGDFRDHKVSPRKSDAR
Procedure: as §1

[5] = tested on: T5, Rep nickase domain of faba bean necrotic yellows virus
T5 sequence (residues 1-98, tag not shown): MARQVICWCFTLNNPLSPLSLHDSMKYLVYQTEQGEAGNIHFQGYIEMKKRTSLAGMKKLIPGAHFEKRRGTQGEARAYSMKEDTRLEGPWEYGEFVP
Procedure: as §1

[6] = tested on: T6, Rep nickase domain of maize striate mosaic virus
T6 sequence (residues 1-117, tag not shown): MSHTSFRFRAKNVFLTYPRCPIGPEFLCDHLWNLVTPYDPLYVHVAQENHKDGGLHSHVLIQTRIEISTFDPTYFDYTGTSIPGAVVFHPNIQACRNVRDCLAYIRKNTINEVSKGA
Procedure: as §1

[7] = tested on: T7, Rep nickase domain of porcine circovirus 2
T7 sequence (residues 2-116, tag not shown): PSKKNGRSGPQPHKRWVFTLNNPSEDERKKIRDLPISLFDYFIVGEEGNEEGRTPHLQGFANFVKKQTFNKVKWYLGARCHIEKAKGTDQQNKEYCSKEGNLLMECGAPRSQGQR
Procedure: as §1

[8] = tested on: T8, Rep nickase domain of tomato golden mosaic virus
T8 sequence (residues 1-124, tag not shown): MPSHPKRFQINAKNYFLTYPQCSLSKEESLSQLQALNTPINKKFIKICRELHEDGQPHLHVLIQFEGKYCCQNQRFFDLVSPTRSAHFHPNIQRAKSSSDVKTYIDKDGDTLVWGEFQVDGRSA
Procedure: as §1

[9] = tested on: T9, Rep nickase domain of tomato yellow leaf curl virus
T9 sequence (residues 1-136, tag not shown): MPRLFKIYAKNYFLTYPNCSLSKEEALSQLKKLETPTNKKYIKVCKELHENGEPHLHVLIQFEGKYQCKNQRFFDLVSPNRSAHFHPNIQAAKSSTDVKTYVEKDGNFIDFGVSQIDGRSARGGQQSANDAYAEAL
Procedure: as §1

[10] = tested on: T10, Rep nickase domain of wheat dwarf virus
T10 sequence (residues 1-137, tag not shown): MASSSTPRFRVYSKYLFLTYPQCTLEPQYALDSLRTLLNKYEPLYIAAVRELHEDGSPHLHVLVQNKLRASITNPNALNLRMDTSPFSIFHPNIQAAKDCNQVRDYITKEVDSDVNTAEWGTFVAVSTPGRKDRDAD
Procedure: as §1

| Sequence | uncleaved DNA left (log2) [1] | uncleaved DNA left (log2) [2] | uncleaved DNA left (log2) [3] | uncleaved DNA left (log2) [4] | uncleaved DNA left (log2) [5] | uncleaved DNA left (log2) [6] | uncleaved DNA left (log2) [7] | uncleaved DNA left (log2) [8] | uncleaved DNA left (log2) [9] | uncleaved DNA left (log2) [10] |
| --- | --- | --- | --- | --- | --- | --- | --- | --- | --- | --- |
| AGGCATC | 0.154 | 0.13 | 0.588 | 1.29 | -0.0398 | 1.3 | 0.167 | 0.0199 | 0.0674 | 0.248 |
| TCCCGGC | -0.114 | -0.0417 | 0.177 | 0.195 | -0.0719 | -0.0358 | -0.000763 | -0.0326 | -0.0968 | -0.136 |
| GGTTGCG | -0.0102 | -0.0747 | 0.105 | 1.09 | 0.0633 | 1.4 | 0.1 | -0.0289 | -0.246 | -0.135 |
| TGTGCTT | 0.0209 | -0.0409 | 0.0965 | -0.995 | 0.0264 | -0.0766 | -0.0485 | -0.0361 | -0.0119 | -0.0867 |
| GTGGGAC | 0.099 | 0.11 | 0.616 | 1.37 | -0.092 | 2.15 | 0.125 | 0.166 | 0.112 | 0.121 |
| GTAAGAC | 0.0966 | 0.0911 | -0.145 | -0.784 | -0.0367 | 1.5 | 0.157 | 0.0141 | 0.13 | 0.0722 |
| GTGCCCG | -0.0257 | 0.00193 | -0.381 | -0.282 | 0.0122 | -0.478 | -0.178 | 0.0281 | 0.022 | -0.0102 |
| AGCAGGC | -0.0672 | 0.0206 | -0.0181 | 0.0904 | -0.00565 | -0.566 | 0.117 | -0.0227 | -0.09 | -0.149 |
| ACGCGCA | -0.0779 | -0.104 | -0.765 | -0.802 | -0.022 | -1.02 | -0.141 | -0.154 | -0.0523 | -0.272 |
| GACCTTG | 0.0533 | 0.0854 | -0.111 | -0.179 | -0.0668 | -0.552 | 0.0475 | 0.0944 | 0.00421 | 0.0152 |
| CAATTTG | 0.109 | -0.15 | -0.757 | -0.707 | 0.0966 | -1.23 | 0.0811 | -0.0227 | 0.0854 | -0.108 |
| TTATCGA | 0.132 | 0.0806 | -0.0938 | -0.369 | 0.0976 | -0.906 | 0.0543 | -0.0978 | 0.143 | 0.108 |
| TAGGCGT | -0.0495 | -0.0933 | -0.839 | -0.965 | -0.0529 | -1 | -0.208 | -0.129 | -0.0763 | -0.191 |
| CACGTGA | -0.034 | -0.098 | -0.235 | -0.636 | -0.15 | -0.829 | 0.00489 | -0.188 | -0.108 | -0.172 |
| AAATGCT | -3.76 | -0.166 | -4.43 | -3.56 | -0.0335 | -3.49 | -4.34 | -3.9 | -0.354 | -3.86 |
| AGTCCCT | 0.0995 | 0.149 | 0.715 | 1.11 | 0.0296 | 1.75 | -1.21 | 0.0756 | 0.0153 | 0.248 |
| TGCCGTG | -0.0815 | -0.0202 | -0.462 | -0.604 | 0.0373 | -0.837 | 0.0376 | -0.0815 | -0.0747 | -0.172 |
| TCTCACA | -0.107 | -0.074 | 0.0585 | -1.44 | 0.00957 | -0.281 | -0.0984 | 0.0261 | 0.0759 | -0.121 |
| GCCCCCG | -0.173 | -0.0481 | -0.646 | -0.564 | -0.0187 | -0.598 | -0.0525 | -0.135 | -0.0727 | -0.176 |
| GTTCAAC | -0.0593 | -0.0796 | 0.221 | 0.705 | -0.0737 | 1.58 | 0.0114 | 0.0444 | 0.00417 | 0.0374 |
| ATTCGGT | 0.0572 | -0.0829 | 0.21 | 0.652 | -0.0586 | 0.644 | -0.0425 | 0.0772 | -0.0243 | 0.0354 |
| CACAAGT | 0.0622 | -0.0181 | -0.0441 | -1.05 | -0.111 | -0.916 | -0.64 | 0.0133 | 0.0281 | -0.0158 |
| TTGTCCT | -0.722 | -0.252 | -0.0702 | -1.99 | -0.215 | -0.666 | -2.67 | -0.207 | 0.041 | -0.131 |
| CAATATC | 0.0778 | 0.0253 | -3.35 | -3.02 | -0.082 | -2.81 | -0.408 | -2.55 | -0.0574 | -1.97 |
| ATGGGGA | 0.0938 | -0.122 | 0.413 | 0.829 | 0.0685 | 1 | 0.203 | 0.0376 | -0.0996 | -0.113 |
| CAAGGGA | 0.159 | 0.07 | 0.35 | 0.908 | 0.0578 | 0.706 | 0.233 | 0.125 | 0.0924 | 0.028 |
| CACCGAA | 0.00923 | 0.039 | -0.0873 | -0.373 | 0.0656 | -0.599 | 0.0811 | 0.0386 | -0.143 | -0.183 |
| CTGCATT | 0.0162 | 0.0282 | -0.0684 | -1.13 | -0.122 | -0.631 | -0.426 | -0.104 | 0.138 | 0.0241 |
| CAGTGTT | -2.99 | -3.1 | -1.91 | -2.28 | -3.01 | 0.509 | -3.55 | -0.463 | -0.097 | -0.527 |
| TCCTAAC | 0.0973 | 0.0484 | -0.0536 | -1.38 | -0.0459 | -0.575 | 0.107 | 0.0823 | 0.0683 | 0.0104 |
